Results: PubChem BioAssay AID651567 (National Center for Advancing Translational Sciences (NCATS), 2012)
In all, about 1,200 compounds went through this assay and about 10 (0.8%) were called active. Inconclusive results (about 4%) are left out. Calls come from the whole dose curve; as a rule, active = well fitted inhibition curve with a large enough effect; inconclusive = small, poorly fitted or top-dose-only effect; inactive = no such curve, though single readings can be large or run the other way. Some of the results follow.

Assay: qHTS Assay to Find Inhibitors of Chronic Active B-Cell Receptor Signaling: Hit Validation in OCI-Ly3 Assay
Settings: OCI-Ly3 IkB-luciferase reporter, Chroma-Glo luminescence, 4 h; series mostly up to 46.1 µM; activity change, negative = inhibition: at the top concentration
Outline: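 Readout is dual-colour luminescence: IkB-alpha-luciferase fusion (green) against unfused luciferase (red), plus their ratio, scaled between basal cells and 10 uM MG-132. OCI-Ly3 cells, 0.5% FBS IMDM, compound with doxycycline (80ng/ml solution), 4 hrs at 37C; curves fitted and classed.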
% is set by controls: 0 for no effect and ±100 for the full control effect; potency is the fitted concentration of half-maximal effect.

SMILES	activity change, negative = inhibition	Potency
CC(=O)Nc1ccc(S(=O)(=O)N2c3ccccc3C(C)=CC2(C)C)cc1	inactive: -3.12%	–
COc1ccccc1N1CCN(C(=O)C2c3ccccc3Oc3ccccc32)CC1	inactive: -3.98%	–
O=C(Oc1ccc2ccc(OC(=O)N3CCOCC3)cc2c1)N1CCOCC1	inactive: -0.304%	–
O=[N+]([O-])c1cc(/C=N/O)ccc1Sc1ccccc1	inactive: -1.92%	–
CC(C)NC(=S)N=Nc1c(O)[nH]c2ccc([N+](=O)[O-])cc12	inactive: -11.9%	–
CCOC(=O)N1CCC(NC(=O)CS(=O)(=O)Cc2nc(-c3ccccc3C)oc2C)CC1	inactive: -0.962%	–
COc1ccc(/C=N/NC(=O)CCn2cnc(-c3ccccc3)c2-c2ccccc2)cc1OC	inactive: -6.46%	–
COc1ccc2c(c1)OC(=O)CC2c1cc(OC)c(OC)c(OC)c1 (configuration not stated)	inactive: -0.97%	–
CCN1C(=O)c2cccc3c(S(=O)(=O)Nc4ccccc4O)ccc1c23	inactive: -2.36%	–
CCN(CC(=O)Nc1ccccc1SC)Cc1nc2ccccc2c(=O)[nH]1	inactive: -0.266%	–
CCOC(=O)C1=C(C)c2ccccc2N(C(=O)OC)C1(C)C(=O)OCC (configuration not stated)	inactive: -1.69%	–
COc1cc(C(=O)c2cocc2C(=O)c2ccc3c(c2)OCO3)cc(OC)c1OC	inactive: -1.26%	–
Clc1cncc(Cl)c1N/N=C/c1ccncc1	inactive: -4.45%	–
O=C(N/N=C/c1cccs1)c1cc(-c2ccncc2)nc2ccccc12	inactive: -3.1%	–
O=C(c1ccc(CS(=O)c2ccccc2Cl)o1)N1CCN(c2ccccc2)CC1 (configuration not stated)	inactive: -1.62%	–
Oc1ccccc1/C=N/Nc1ccnc(SCc2ccccc2)n1	inactive: 0.375%	–
CN(C)c1ccc(C(=O)c2ccc(N(C)C)c3ccccc23)cc1	inactive: -5.9%	–
N#C/C(=C\c1cn(Cc2ccc(F)cc2)c2ccccc12)C(=O)NCc1ccco1	inactive: 0.627%	–
COc1ccc(-c2cc(C(=O)N/N=C(\C)c3cccnc3)c3ccccc3n2)cc1	inactive: 0.473%	–
Nc1ccc(C(=O)Nc2ccccc2N)cc1	inactive: -5.26%	–
CCCCn1c(=O)c(F)cn(Cc2ccc(OC)c([N+](=O)[O-])c2)c1=O	inactive: -0.178%	–
COc1ccc(COC(=O)C2=C(C)NC(=O)NC2c2cc(Br)c(O)c(OC)c2)cc1 (configuration not stated)	inactive: 0.378%	–
COc1cc(/C=C2\N=C(c3ccccc3)NNC2=O)cc(OC)c1OC	inactive: -4.52%	–
CC[C@]12c3[nH]c4cc(CCC(=O)N(C)C)ccc4c3CCN1C(=O)[C@@H](CC(=O)NC(C)(C)C)C[C@@H]2C(=O)N1CCN(C(=O)c2ccco2)CC1	inactive: -2.11%	–
O=c1[nH]c(-c2ccccn2)nc2sc(-c3ccccc3)cc12	inactive: 15.4%	–
CC1=CC(C)(C)N(S(=O)(=O)c2ccc(C)cc2)c2ccc(C)cc21	inactive: -2.05%	–

SMILES	activity change, negative = inhibition	Potency
O=C(CCl)Nc1cccc(S(=O)(=O)NC2=NCCCCC2)c1	inactive: -25.6%	–
O=C(CSc1cccc[n+]1[O-])c1ccc(Cl)cc1	inactive: -0.776%	–
Cc1ccc(S(=O)(=O)Nc2cccc3cccnc23)cc1	inactive: 32.7%	–
Cc1ccc(S(=O)(=O)Nc2cccc3ncccc23)s1	inactive: 32.4%	–
CCn1c(O)c(N=NC(=S)NCC2CCCO2)c2ccccc21 (configuration not stated)	–	active: 20.6 µM
COc1ccc(-c2c(-c3cc(OC)c(OC)c(OC)c3)noc2C)cn1	inactive: -3.49%	–
C(=N\Nc1nc2ccccc2[nH]1)/C1CCCCC1	inactive: -0.557%	–
CCC(=O)[C@@]1(C)[C@H](C)C[C@H]2[C@@H]3CCC4=CC(=O)C=C[C@]4(C)[C@H]3[C@@H](O)C[C@@]21C	inactive: -1.74%	–
CC1(C)N=c2ccc([N+](=O)[O-])c(N)c2=[N+]1[O-]	inactive: -0.356%	–
CCCCNC(=S)N=Nc1c(O)[nH]c2ccccc12	inactive: -0.579%	–
CCOC(=O)C1C(C(=O)OC)=C(c2ccc(OC)cc2)c2ccccc2N1S(=O)(=O)C(F)(F)F (configuration not stated)	inactive: -0.0891%	–
CC[C@]1(O)CC2CN(CCc3c([nH]c4ccccc34)[C@@](C(=O)OC)(c3cc4c(cc3OC)N(C=O)[C@H]3[C@@](O)(C(=O)OC)[C@H](OC(C)=O)[C@]5(CC)C=CCN6CC[C@]43[C@@H]65)C2)C1 (some centres not stated)	inactive: -5.16%	–
O=C(NC(=S)N1CCN(c2ccc(Cl)cc2[N+](=O)[O-])CC1)c1cccs1	inactive: 123%	–
CCCSc1nnc(Sc2nnnn2-c2ccccc2)s1	inactive: -9.45%	–
CC1=Nc2ccccc2/C1=C\c1sc(Nc2ccc(C)cc2)nc1O	inactive: -20.5%	–
Cc1cccc(NC(=O)c2ccc(C(=O)Nc3cccc(C)c3)nc2)c1	inactive: -0.935%	–
Cc1ccc(NS(=O)(=O)c2cc(-c3n[nH]c(=O)c4ccccc34)ccc2C)cc1	inactive: -3.87%	–
Cc1cccc(C(=O)Oc2ccc(/C=N/O)cc2)c1	inactive: -0.552%	–
CN1c2ccccc2Sc2cc(N)ccc21	inactive: -0.863%	–
COc1ccc(-c2c(C)nn3c(N)c(C#N)cnc23)cc1OC	inactive: 0.123%	–
C=CCOc1c(OC)cc(/C=N/Nc2cccc(C(=O)O)c2)c(Br)c1Br	inactive: -5.38%	–
Cc1cc(Cl)n2c(nc3cc(F)c(F)cc32)c1C#N	inactive: 0.844%	–
CCCC1=Nc2cc(C(=O)NC3CCCCC3)ccc2Sc2ccc(C)cc21	inactive: -3.15%	–
COc1ccc(C(=O)N(C)Cc2cnn(Cc3ccccc3)c2)cc1S(=O)(=O)N1CCOCC1	inactive: -0.0414%	–
COc1cc2c(cc1OC)C(C)N(C(=O)c1cc(C)on1)CC2 (configuration not stated)	inactive: -2.02%	–
Nc1ncnc2c1ncn2[C@@H]1O[C@H](COP(=O)(O)O)[C@@H](O)[C@H]1O	inactive: 0.165%	–
